Laboratory results reported in publication PMC12803953, “The MO25 protein Pmo25 functions in contractile ring stability and Sid2 localization during cytokinesis” (iScience, 2025).
No constants are given. Whether binding was seen depends on the method and setting. For part of these data: Binding seen in cells or lysates may run through a third protein. Some results given as binding are weak or reduced against the parent protein; the word gives no strength. Sequences can lack the tags named with a protein. Blank lines part the entries; values can stand above or below the binder they belong to.

Chains of the proteins cited; added tags and fusions are not shown.
UniProt Q09196: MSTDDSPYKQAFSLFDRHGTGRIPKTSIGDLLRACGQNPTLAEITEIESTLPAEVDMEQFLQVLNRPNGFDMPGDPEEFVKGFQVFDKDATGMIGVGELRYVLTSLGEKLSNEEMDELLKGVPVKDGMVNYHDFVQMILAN

Columns and labels:
[1] = biological target: BD-Cdc4 (full length Cdc4 in pGBT9) (S. pombe) (UniProt Q09196); assay: two-hybrid; S. cerevisiae MaV203; full length Pmo25 in pVP16 (AD) with full length contractile-ring proteins in pGBT9 (BD); LacZ as a reporter
[2] = biological target: mYFP-Cdc4 (S. pombe) (UniProt Q09196); assay: co-IP; S. pombe cell extracts, tagged proteins under native promoters; anti-GFP polyclonal antibody on protein G Dynabeads, 1.5 h at 4°C; IP buffer 50 mM HEPES pH 7.5, 150 mM NaCl, 1 mM EDTA, 0.5% NP-40; blot with anti-Myc and anti-GFP
[3] = biological target: T1, Pmo25-mECitrine (S. pombe) (UniProt Q9P7Q8); assay: as above
T1 sequence: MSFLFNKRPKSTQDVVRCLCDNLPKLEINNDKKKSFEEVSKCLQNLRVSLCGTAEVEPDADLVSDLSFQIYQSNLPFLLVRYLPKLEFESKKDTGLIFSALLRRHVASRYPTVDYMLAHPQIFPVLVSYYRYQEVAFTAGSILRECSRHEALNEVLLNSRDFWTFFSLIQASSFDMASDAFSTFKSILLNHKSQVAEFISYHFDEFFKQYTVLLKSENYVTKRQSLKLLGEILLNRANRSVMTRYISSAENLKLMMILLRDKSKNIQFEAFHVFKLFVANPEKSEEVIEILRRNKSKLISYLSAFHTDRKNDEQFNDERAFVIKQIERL

[4] = biological target: T2, BD-Ync13 COOH-terminus (591–1237 aa) (S. pombe) (UniProt O13683); assay: two-hybrid; S. cerevisiae MaV203; Ync13 fragments in pGBT9 (BD) as baits, prey from the pACT2 library; reporters URA3, HIS3, LacZ; quadruple dropout medium with 3AT and LacZ coloration
T2 sequence: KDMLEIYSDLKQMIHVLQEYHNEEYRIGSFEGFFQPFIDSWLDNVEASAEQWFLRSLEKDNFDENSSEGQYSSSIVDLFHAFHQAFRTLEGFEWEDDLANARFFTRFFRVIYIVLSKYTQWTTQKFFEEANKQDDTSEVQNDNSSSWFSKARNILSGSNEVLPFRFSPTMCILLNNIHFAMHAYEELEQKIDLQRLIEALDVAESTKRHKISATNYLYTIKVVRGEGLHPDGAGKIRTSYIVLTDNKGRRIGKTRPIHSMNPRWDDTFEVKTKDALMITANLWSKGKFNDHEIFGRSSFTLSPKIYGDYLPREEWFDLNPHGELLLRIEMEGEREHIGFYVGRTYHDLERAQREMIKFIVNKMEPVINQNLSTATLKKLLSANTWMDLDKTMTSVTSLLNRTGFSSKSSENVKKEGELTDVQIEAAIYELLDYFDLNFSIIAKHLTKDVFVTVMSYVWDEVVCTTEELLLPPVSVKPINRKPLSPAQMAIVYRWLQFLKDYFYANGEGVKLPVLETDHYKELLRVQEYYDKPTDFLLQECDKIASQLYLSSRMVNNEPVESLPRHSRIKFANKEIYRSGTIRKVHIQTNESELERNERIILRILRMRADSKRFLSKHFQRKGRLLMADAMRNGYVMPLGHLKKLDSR

[5] = biological target: T3, BD-Ync13 NH2-terminus (1–590 aa) (S. pombe) (UniProt O13683); assay: as above
T3 sequence: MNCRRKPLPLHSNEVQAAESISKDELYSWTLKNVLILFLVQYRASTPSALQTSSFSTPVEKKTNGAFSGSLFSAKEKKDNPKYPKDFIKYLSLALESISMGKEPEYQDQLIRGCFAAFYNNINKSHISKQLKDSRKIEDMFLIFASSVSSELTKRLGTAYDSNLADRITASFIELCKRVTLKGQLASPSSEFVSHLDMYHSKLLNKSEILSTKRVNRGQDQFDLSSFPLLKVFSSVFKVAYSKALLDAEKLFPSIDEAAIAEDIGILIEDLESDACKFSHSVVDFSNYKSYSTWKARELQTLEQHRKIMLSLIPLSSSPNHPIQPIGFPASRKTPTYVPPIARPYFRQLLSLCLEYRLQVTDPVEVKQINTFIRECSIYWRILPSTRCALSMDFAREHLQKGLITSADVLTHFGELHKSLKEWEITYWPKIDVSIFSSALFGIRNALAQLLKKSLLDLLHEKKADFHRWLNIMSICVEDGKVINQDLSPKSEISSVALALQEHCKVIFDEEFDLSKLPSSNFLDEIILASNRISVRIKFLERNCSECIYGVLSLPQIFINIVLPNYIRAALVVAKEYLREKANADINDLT

[6] = biological target: T4, MBP-Ync13-(591–1130)-6His (S. pombe, UniProt O13683 591-1130); assay: pull-down; MBP-Ync13 proteins bound to amylose beads, incubated with Pmo25-6His proteins 1 h at 4°C; binding buffer 137 mM NaCl, 2 mM KCl, 10 mM Na2HPO4, 2 mM KH2PO4, 0.5 mM DTT, 10% glycerol, pH 7.4; 4 washes; beads on SDS-PAGE, Coomassie Blue; both purified
T4 construct: The cloning of this fragment is not described; not shown: MBP, N-terminal, kept; His6, C-terminal, kept
T4 sequence (looked up): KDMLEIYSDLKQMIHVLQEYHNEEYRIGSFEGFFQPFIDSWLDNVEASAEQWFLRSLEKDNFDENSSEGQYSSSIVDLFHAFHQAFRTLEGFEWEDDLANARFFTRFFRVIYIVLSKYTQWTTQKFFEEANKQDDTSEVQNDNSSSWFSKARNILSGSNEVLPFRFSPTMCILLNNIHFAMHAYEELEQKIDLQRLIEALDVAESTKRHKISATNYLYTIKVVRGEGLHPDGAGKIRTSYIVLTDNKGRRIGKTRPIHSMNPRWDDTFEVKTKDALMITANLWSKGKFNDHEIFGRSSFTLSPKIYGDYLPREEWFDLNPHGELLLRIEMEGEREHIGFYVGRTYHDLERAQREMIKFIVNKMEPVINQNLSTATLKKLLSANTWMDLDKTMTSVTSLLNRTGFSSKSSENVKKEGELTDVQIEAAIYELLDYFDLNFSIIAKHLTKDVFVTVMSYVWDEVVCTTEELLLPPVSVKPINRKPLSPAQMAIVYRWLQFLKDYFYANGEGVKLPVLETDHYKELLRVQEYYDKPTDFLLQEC

B1: AD-Pmo25 (full length Pmo25 fused to the VP16 transcription activation domain) (protein, UniProt Q9P7Q8 1-329)
chain: MSFLFNKRPKSTQDVVRCLCDNLPKLEINNDKKKSFEEVSKCLQNLRVSLCGTAEVEPDADLVSDLSFQIYQSNLPFLLVRYLPKLEFESKKDTGLIFSALLRRHVASRYPTVDYMLAHPQIFPVLVSYYRYQEVAFTAGSILRECSRHEALNEVLLNSRDFWTFFSLIQASSFDMASDAFSTFKSILLNHKSQVAEFISYHFDEFFKQYTVLLKSENYVTKRQSLKLLGEILLNRANRSVMTRYISSAENLKLMMILLRDKSKNIQFEAFHVFKLFVANPEKSEEVIEILRRNKSKLISYLSAFHTDRKNDEQFNDERAFVIKQIERL
binding [1]: binds weakly

B2: Pmo25-13Myc (protein, UniProt Q9P7Q8 1-329)
chain: MSFLFNKRPKSTQDVVRCLCDNLPKLEINNDKKKSFEEVSKCLQNLRVSLCGTAEVEPDADLVSDLSFQIYQSNLPFLLVRYLPKLEFESKKDTGLIFSALLRRHVASRYPTVDYMLAHPQIFPVLVSYYRYQEVAFTAGSILRECSRHEALNEVLLNSRDFWTFFSLIQASSFDMASDAFSTFKSILLNHKSQVAEFISYHFDEFFKQYTVLLKSENYVTKRQSLKLLGEILLNRANRSVMTRYISSAENLKLMMILLRDKSKNIQFEAFHVFKLFVANPEKSEEVIEILRRNKSKLISYLSAFHTDRKNDEQFNDERAFVIKQIERL
binding [2]: binds

Other lines, results leading:

binding [3]: binds
B3: Sid2-13Myc (enzyme, UniProt Q09898 1-607)
chain: MNRVNDMSPVEGDLGLQLSSEADKKFDAYMKRHGLFEPGNLSNNDKERNLEDQFNSMKLSPVASSKENYPDNHMHSKHISKLPIASPIPRGLDRSGELSYKDNNHWSDRSSTGSPRWENGSMNLSVEEMEKVVQPKVKRMATICQMFFLDHYFEQLHYLYTRKQRARLFEEQLLKEPDSRRDELVKRYNGRERVYLRKRRTRISHGDFQTITQVGQGGYGSVWLARKRDTKEIVALKIMNKSVLHKMDEIRHVLTERDILTTANSEWLVRLLYAFQDTSNIYLAMEFVPGGDFRTLLSNSGVLRDHHAKFYATEMFLAIDALHQLGYIHRDLKPENFLVGASGHIKLTDFGLSSGIISKKKIESMKIRLQEVNNVVVPERSMRERRQVFRTLLSQDPVYAHSVVGSPDYMAPEVLRGENYNHSVDYWSLGCIMYECLSGFPPFSGSNVNETWSNLKNWRKCFQRPHYDDPRDLEFNWRDDAWDFVCHCITDPKDRFCSLKQVMQHPYFSKIDWKNVRTAYRPPFVPDLNSEIDAGYFDDFTNENDMSKYKEVHEKQAAIANMVNTFNKPKRNAFIGFTFRHQKNSHPTSSSSALSSPLSAPSFGTLL

binding [4]: binds
binding [5]: no binding
B4: Pmo25-(19–329)-6His (domain or fragment, S. pombe, UniProt Q9P7Q8 19-329, looked up)
chain: LCDNLPKLEINNDKKKSFEEVSKCLQNLRVSLCGTAEVEPDADLVSDLSFQIYQSNLPFLLVRYLPKLEFESKKDTGLIFSALLRRHVASRYPTVDYMLAHPQIFPVLVSYYRYQEVAFTAGSILRECSRHEALNEVLLNSRDFWTFFSLIQASSFDMASDAFSTFKSILLNHKSQVAEFISYHFDEFFKQYTVLLKSENYVTKRQSLKLLGEILLNRANRSVMTRYISSAENLKLMMILLRDKSKNIQFEAFHVFKLFVANPEKSEEVIEILRRNKSKLISYLSAFHTDRKNDEQFNDERAFVIKQIERL
notes: in pET21a between the N-terminal T7 tag and the C-terminal 6xHis tag; not shown: His6, C-terminal, kept

binding [6]: no binding
B5: Pmo25-full length-6His (protein, UniProt Q9P7Q8 1-329)
chain: MSFLFNKRPKSTQDVVRCLCDNLPKLEINNDKKKSFEEVSKCLQNLRVSLCGTAEVEPDADLVSDLSFQIYQSNLPFLLVRYLPKLEFESKKDTGLIFSALLRRHVASRYPTVDYMLAHPQIFPVLVSYYRYQEVAFTAGSILRECSRHEALNEVLLNSRDFWTFFSLIQASSFDMASDAFSTFKSILLNHKSQVAEFISYHFDEFFKQYTVLLKSENYVTKRQSLKLLGEILLNRANRSVMTRYISSAENLKLMMILLRDKSKNIQFEAFHVFKLFVANPEKSEEVIEILRRNKSKLISYLSAFHTDRKNDEQFNDERAFVIKQIERL
